# Data from PubChem BioAssay (NCATS).
# Values joined by “and” are separate entries in the source; they are usually repeats but may differ in a detail not shown here. Identical values can stand only once. The shares of active, inactive and inconclusive entries below differ from those in the screen. Potencies of inconclusive entries are doubtful fits and often do not repeat. Active and inactive are the calls of the source. Calls come from the whole dose curve; as a rule, active = well fitted curve in the direction sought with a large enough effect; inconclusive = small, poorly fitted or top-dose-only effect, or another doubt; inactive = no such curve, though single readings can be large; an effect the other way counts as inactive or inconclusive.
# Experiments:
# [1] = qHTS of pediatric cancer cell lines to identify multiple opportunities for drug repurposing: Primary screen for NB-EBc1 cells (AID 1347095)
# Procedure, shortened: (§1)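 Cells seeded at 500-1,000 cells/well in growth media, rested 5 hours at 37 degrees C, 5% CO2, then dosed; MIPE compounds at 11-point (from 0.78 nM) and NPC at 8-point (from 0.59 nM) final concentrations. Viability by CellTiter-Glo luminescence after 48 hours.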
# [2] = qHTS of pediatric cancer cell lines to identify multiple opportunities for drug repurposing: Primary screen for U-2 OS cells (AID 1347096); note: nearly all actives have a fitted effect of over 50% in size
# Procedure, shortened: (§2)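 Cells (500-1,000/well) in growth media were settled 5 h at 37 degrees C, then given compounds for 48 h. Viability was read as CellTiter-Glo luminescence. Primary runs used MIPE at 11 points (0.78 nM-46 µM) and NPC at 8 points (0.59 nM-46 µM); follow-ups used 11 points.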
# [3] = qHTS of pediatric cancer cell lines to identify multiple opportunities for drug repurposing: Primary screen for Saos-2 cells (AID 1347097); conditions: Saos-2 viability, CellTiter-Glo ATP luminescence, 48 h; activity change, negative = cytotoxic: at 46 µM (top of the series); note: nearly all actives have a fitted effect of over 40% in size
# Procedure, shortened: as §1
# [4] = qHTS of pediatric cancer cell lines to identify multiple opportunities for drug repurposing: Primary screen for SK-N-SH cells (AID 1347098); conditions: SK-N-SH viability, CellTiter-Glo luminescence, 48 h; activity change, negative = cytotoxic: at 57 µM (top of the series); note: nearly all actives have a fitted effect of over 65% in size
# Procedure, shortened: (§3)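 Cells (500-1,000/well) rested 5 h, then received compounds for 48 h; metabolically active cells were measured by CellTiter-Glo luminescence. Final concentrations spanned up to 46 µM (MIPE, 11-point) or 0.59 nM-46 µM (NPC, 8-point) in primary screens, 11-point in follow-ups.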
# [5] = qHTS of pediatric cancer cell lines to identify multiple opportunities for drug repurposing: Primary screen for LAN-5 cells (AID 1347100); conditions: LAN-5 neuroblastoma viability, CellTiter-Glo luminescence, 48 h; activity change, negative = cytotoxic: at 46 µM (top of the series)
# Procedure, shortened: as §2
# [6] = qHTS of pediatric cancer cell lines to identify multiple opportunities for drug repurposing: Primary screen for BT-12 cells (AID 1347101); note: nearly all actives have a fitted effect of over 25% in size
# Procedure, shortened: as §3
# [7] = qHTS of pediatric cancer cell lines to identify multiple opportunities for drug repurposing: Primary screen for OHS-50 cells (AID 1347103); note: nearly all actives have a fitted effect of over 40% in size
# Procedure, shortened: as §3
# [8] = qHTS of pediatric cancer cell lines to identify multiple opportunities for drug repurposing: Primary screen for RD cells (AID 1347104); note: nearly all actives have a fitted effect of over 55% in size
# Procedure, shortened: as §1
# [9] = qHTS of pediatric cancer cell lines to identify multiple opportunities for drug repurposing: Primary screen for NB1643 cells (AID 1347099); note: nearly all actives have a fitted effect of over 50% in size
# Procedure, shortened: as §1
# [10] = qHTS of pediatric cancer cell lines to identify multiple opportunities for drug repurposing: Primary screen for Rh18 cells (AID 1347102); note: nearly all actives have a fitted effect of over 65% in size
# Procedure, shortened: as §2
# Potency is the fitted concentration of half-maximal effect; tags give direction and shape of the fitted curve.
Compound,Potency [1],Potency [2],Potency [3],Potency [4],Potency [5],Potency [6],Potency [7],Potency [8],Potency [9],Potency [10]
Cc1cc(=O)c2c(O)c3c(O)cc(=O)c4c3c3c(cc(O)c1c23)C(C)(C)C=4O,active: 5.8 µM and active: 418 nM,"inconclusive: 1.16 µM [cytotoxic, full curve] and inconclusive: 23.5 µM [cytotoxic, single point]",active: 1.46 µM and active: 2.09 µM,"inconclusive: 42.9 µM [cytotoxic, single point]",active: 2.59 µM and active: 5.26 µM,"inconclusive: 16.9 µM [cytotoxic, single point] and inconclusive: 24.3 µM [cytotoxic, partial curve]",–,–,–,–
Cc1cc(-c2ccc(CC(=O)Nc3ccc(-c4cccnc4)cc3)cc2)ccn1,"inconclusive: 20.9 µM [cytotoxic, single point]","inconclusive: 11.8 µM [cytotoxic, partial curve, poor fit]","inconclusive: 9.35 µM [cytotoxic, partial curve]","inconclusive: 24.1 µM [cytotoxic, partial curve]","inconclusive: 26.4 µM [cytotoxic, single point]","inconclusive: 24.3 µM [cytotoxic, single point]","inconclusive: 0.122 µM [cytotoxic, partial curve]","inconclusive: 29.6 µM [cytotoxic, single point]",–,–
Cc1ccc(-n2[nH]c(C)c(N=Nc3cccc(-c4cccc(C(=O)O)c4)c3O)c2=O)cc1C,active: 6.62 µM,"inconclusive: 26.6 µM [cytotoxic, single point]",active: 13.3 µM,"inconclusive: 30.4 µM [cytotoxic, partial curve]","inconclusive: 16.8 µM [cytotoxic, partial curve, poor fit]","inconclusive: 13.8 µM [cytotoxic, partial curve]",–,"inconclusive: 15 µM [cytotoxic, partial curve]","inconclusive: 26.6 µM [cytotoxic, single point]","inconclusive: 33.2 µM [cytotoxic, single point]"
O=C(NOCC(O)CO)c1cc(Br)c(F)c(F)c1Nc1ccc(I)cc1F (stereo unspecified),"inconclusive: 0.0332 µM [cytotoxic, full curve]","inconclusive: 37.2 µM [cytotoxic, single point]","inconclusive: 23.5 µM [cytotoxic, partial curve, poor fit]",–,inactive,"inconclusive: 21.7 µM [cytotoxic, partial curve]",–,–,"inconclusive: 0.469 µM [cytotoxic, full curve]",–
Cc1c(O)cccc1C(=O)N[C@@H](CSc1ccccc1)[C@H](O)CN1C[C@H]2CCCC[C@@H]2C[C@@H]1C(=O)NC(C)(C)C,"inconclusive: 33.2 µM [cytotoxic, single point]","inconclusive: 23.5 µM [cytotoxic, single point]",active: 26.4 µM,"inconclusive: 38.3 µM [cytotoxic, single point]","inconclusive: 29.6 µM [cytotoxic, single point]","inconclusive: 27.3 µM [cytotoxic, single point]",–,–,"inconclusive: 33.2 µM [cytotoxic, single point]",active: 18.7 µM
N#CC(c1ccnc(NCCc2cccnc2)n1)c1nc2ccccc2s1 (stereo unspecified),"inconclusive: 33.2 µM [cytotoxic, single point]","inconclusive: 37.2 µM [cytotoxic, single point]",–,"inconclusive: 19.2 µM [cytotoxic, partial curve]",–,active: 21.7 µM,active: 19.3 µM,–,"inconclusive: 26.4 µM [cytotoxic, partial curve, poor fit]","inconclusive: 33.2 µM [cytotoxic, single point]"
C=CCc1cc(OC)c(O)c(C(=O)NCCO)c1,inactive,inactive,"inconclusive: 0.0168 µM [cytotoxic, full curve, poor fit]",–,–,inactive,–,–,–,–
COc1cc2c(cc1Cc1cccc(Cl)c1F)c(=O)c(C(=O)O)cn2[C@H](CO)C(C)C,"inconclusive: 23.5 µM [cytotoxic, single point]","inconclusive: 29.6 µM [cytotoxic, single point]","inconclusive: 7.43 µM [cytotoxic, full curve]",–,"inconclusive: 29.6 µM [cytotoxic, single point]","inconclusive: 43.2 µM [cytotoxic, single point]",–,–,–,"inconclusive: 33.2 µM [cytotoxic, single point]"
Cc1ccc(C(=O)N(CCCN)[C@@H](c2oc3cc(Cl)ccc3c(=O)c2Cc2ccccc2)C(C)C)cc1,active: 0.001 µM,"inconclusive: 29.6 µM [cytotoxic, single point]",active: 0.001 µM,"inconclusive: 48.2 µM [cytotoxic, partial curve, poor fit]",–,active: 0.001 µM,–,"inconclusive: 46.9 µM [cytotoxic, single point]",–,–
CNC(=O)c1cc(COc2nnc(Nc3ccc(Cl)cc3)c3ccoc23)ccn1,active: 23.5 µM,"inconclusive: 23.5 µM [cytotoxic, single point]",active: 18.7 µM,–,"inconclusive: 14.8 µM [cytotoxic, partial curve]","inconclusive: 30.6 µM [cytotoxic, single point]",–,–,"inconclusive: 26.4 µM [cytotoxic, single point]",–
CCC1=C(C)CN(C(=O)NCCc2ccc(S(=O)(=O)NC(=O)NC3CCC(C)CC3)cc2)C1=O (stereo unspecified),inactive,–,–,–,–,–,–,–,–,–
CNC1CCC(N(Cc2cccc(-c3ccncc3)c2)C(=O)c2sc3c(F)ccc(F)c3c2Cl)CC1 (stereo unspecified),"inconclusive: 16.6 µM [cytotoxic, partial curve]","inconclusive: 18.7 µM [cytotoxic, single point]",active: 18.7 µM,active: 19.2 µM,"inconclusive: 29.6 µM [cytotoxic, single point]","inconclusive: 30.6 µM [cytotoxic, single point]",–,–,–,–
OCCCNc1cc(-c2ccnc(Nc3cccc(Cl)c3)n2)ccn1,active: 0.0935 µM,"inconclusive: 0.235 µM [cytotoxic, full curve]",–,"inconclusive: 0.108 µM [cytotoxic, full curve]","inconclusive: 0.0662 µM [cytotoxic, full curve, poor fit]",active: 0.193 µM,–,–,"inconclusive: 16.6 µM [cytotoxic, partial curve, poor fit]","inconclusive: 0.235 µM [cytotoxic, full curve]"
CN1CCN(CCOc2cc(OC3CCOCC3)c3c(Nc4c(Cl)ccc5c4OCO5)ncnc3c2)CC1,"inconclusive: 33.2 µM [cytotoxic, single point]","inconclusive: 23.5 µM [cytotoxic, single point]","inconclusive: 1.87 µM [cytotoxic, full curve]",–,active: 18.7 µM,"inconclusive: 27.3 µM [cytotoxic, single point]",–,–,"inconclusive: 16.6 µM [cytotoxic, partial curve]",–
O=C(C=Cc1cccnc1)NCCCCC1CCN(C(=O)c2ccccc2)CC1,active: 0.0118 µM,–,"inconclusive: 0.0235 µM [cytotoxic, full curve, poor fit]",active: 0.482 µM,"inconclusive: 0.0093 µM [cytotoxic, full curve, poor fit]","inconclusive: 0.172 µM [cytotoxic, full curve]",–,"inconclusive: 0.0093 µM [cytotoxic, full curve, poor fit]","inconclusive: 0.0042 µM [cytotoxic, full curve, poor fit]",–
CC(C)(C)c1[nH]cnc1C=c1[nH]c(=O)c(=Cc2ccccc2)[nH]c1=O,active: 0.001 µM,–,active: 0.136 µM,"inconclusive: 69.8 µM [cytotoxic, single point]",–,active: 0.0111 µM,–,–,–,–
O=c1[nH]c(=O)n([C@H]2C[C@@H](O)[C@@H](CO)O2)cc1F,"inconclusive: 2.64 µM [cytotoxic, full curve]",active: 18.7 µM,–,–,–,active: 6.11 µM,"inconclusive: 43.2 µM [cytotoxic, single point]",–,–,"inconclusive: 26.4 µM [cytotoxic, single point]"
CN(C)C(=O)[C@H](O)[C@H](Cc1ccccc1)NC(=O)c1cc2cc(Cl)ccc2[nH]1,active: 3.32 µM,–,"inconclusive: 18.7 µM [cytotoxic, partial curve]","inconclusive: 30.4 µM [cytotoxic, single point]",–,"inconclusive: 24.3 µM [cytotoxic, partial curve]",–,"inconclusive: 13.2 µM [cytotoxic, partial curve]","inconclusive: 20.9 µM [cytotoxic, single point]","inconclusive: 4.69 µM [cytotoxic, full curve, poor fit]"
CN[C@@H](C)C(=O)N[C@H]1CN(C(=O)CC(C)C)CC[C@H]2CC[C@@H](C(=O)NC(c3ccccc3)c3ccccc3)N2C1=O,active: 2.96 µM,inactive,–,"inconclusive: 1.52 µM [cytotoxic, full curve]",active: 0.187 µM,active: 0.485 µM,active: 0.243 µM,"inconclusive: 0.372 µM [cytotoxic, full curve]",–,–
